# Where “and” joins values, the source holds several entries; their conditions need not be identical. Identical values can stand only once. Out of some 110,000 compounds screened, about 230 (0.21%) showed an effect of 50% or more. Some of the results follow.
# Molecular target: DPAP1 (Plasmodium falciparum, UniProt Q8IIJ9)
# Experiment: primary screen, percent inhibition; read by cleavage of a fluorogenic dipeptide substrate; higher = more effect of the substance
# Design: species or system P. falciparum D10 trophozoite lysates; single well
# 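Further: 30 min substrate incubation versus DMSO and 10 µM JCP410 controls.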
# Sequence of DPAP1 (Q8IIJ9 whole entry, looked up): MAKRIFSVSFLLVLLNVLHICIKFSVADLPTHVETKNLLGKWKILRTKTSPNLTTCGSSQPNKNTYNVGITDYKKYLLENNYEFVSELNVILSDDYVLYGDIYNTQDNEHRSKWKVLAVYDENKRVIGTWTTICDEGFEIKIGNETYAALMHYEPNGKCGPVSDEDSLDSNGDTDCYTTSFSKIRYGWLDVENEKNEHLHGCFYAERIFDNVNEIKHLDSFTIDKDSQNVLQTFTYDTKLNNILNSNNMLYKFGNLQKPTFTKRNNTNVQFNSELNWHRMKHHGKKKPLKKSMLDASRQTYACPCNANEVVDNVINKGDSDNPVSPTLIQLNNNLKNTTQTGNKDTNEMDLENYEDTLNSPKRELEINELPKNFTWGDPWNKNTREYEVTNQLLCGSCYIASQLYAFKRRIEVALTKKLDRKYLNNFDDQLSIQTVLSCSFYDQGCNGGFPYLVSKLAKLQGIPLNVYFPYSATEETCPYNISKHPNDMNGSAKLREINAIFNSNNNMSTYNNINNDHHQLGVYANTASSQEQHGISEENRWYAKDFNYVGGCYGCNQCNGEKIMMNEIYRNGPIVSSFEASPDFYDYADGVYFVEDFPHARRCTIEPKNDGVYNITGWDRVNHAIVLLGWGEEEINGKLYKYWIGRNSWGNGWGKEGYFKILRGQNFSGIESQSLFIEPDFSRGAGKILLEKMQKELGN
row,Compound,% Inhibition @ 10 uM
1,O=C1/C(=C/c2ccc(O)cc2)C(=O)N(c2ccc(Br)cc2)C(=S)N1c1ccccc1,5.64%
2,CCc1cccc(C)c1NC(=O)CN(c1ccc(C)cc1)S(C)(=O)=O,1.71%
3,C=CCOc1cccc(C=C2C(=O)NC(=O)NC2=O)c1,19.4%
4,N#C/C(=C(/O)c1cccc2ccccc12)c1nc2ccccc2[nH]1,1.37%
5,O=C(Nc1cccnc1)Oc1ccccc1,-5.35%
6,Cc1cc(C)n(-c2nc3cc(Cl)ccc3nc2Cl)n1,-2.8%
7,COc1ccc(CNC(=O)CCNS(=O)(=O)c2cc(Br)cnc2N)cc1,0.522%
8,CCOc1ccc(-n2cc(-c3ccccc3)c3c(NCC(C)O)ncnc32)cc1 (centres unmarked),4.92%
9,CC(C)Cc1c(C#N)c(N)nc(SCC(=O)c2cc3cc(Br)ccc3oc2=O)c1C#N,2.3%
10,CCN1CCC(NCc2ccccc2C(F)(F)F)CC1,-4.14%
11,CC1=C(C(=O)Nc2cccnc2)C(c2cccc(OCc3ccccc3)c2)n2ncnc2N1 (centres unmarked),0.279%
12,COc1ccc(-c2csc(Nc3ccccc3)n2)cc1,5.39%
13,Cc1sc2c(=O)n3c(nc2c1C(=O)NC1CCCCC1)CCCCC3,-1.26%
14,COc1ccc(N(C)C(=O)c2sc(Cl)nc2C)cc1,0.907%
15,COc1cc(NC(=O)c2cccc(Br)c2)nc(OC)n1,-0.413%
16,Cc1ccc2nc(O)c3cc(C(=O)NCCCN4CCCC4=O)sc3c2c1,-2.16%
17,CCOc1cc(/C=C2/NC(=O)NC2=O)c(Br)cc1O,0.487%
18,COC(=O)CSc1nc(C)c(C)c(C)c1C#N,4.15%
19,CCOc1ccccc1C(=O)Nc1cccc(F)c1,0.00477%
20,O=C1c2ccccc2C(=O)c2cc(S(=O)(=O)N3CCCC3)ccc21,-5.61%
21,Fc1ccccc1CN1CCN(c2ccccc2F)CC1,2.47%
22,O=C(NCCSc1c[nH]c2ccccc12)c1cccc2ccccc12,1.23%
23,Cc1ccc(S(=O)(=O)N2CCC(C(N)=O)CC2)cc1C,-2.03%
24,COc1ccc(NC(=O)C(=O)NCCCn2ccnc2C)cn1,4.57%
25,CCC(C)(C)C1CCc2c(sc(NC(=O)c3cc(C)oc3C)c2C(N)=O)C1 (centres unmarked),5.15%
26,O=C(O)c1ccc(COc2ccc3c(c2)CCC3)o1,2.09%

row,Compound,% Inhibition @ 10 uM
1,O=C(c1cc2c(s1)-c1ccc(Cl)cc1SC2)N1CCCCC1,2.57%
2,Cc1cccc(NC(=S)NCc2ccco2)n1,4.63%
3,Cc1cc(/C=C2\SC(=O)NC2=O)c(C)n1-c1ccc(-c2ccccc2)cc1,1.39%
4,CCCCNc1nc(N)nc(-c2cc(Cl)ccc2O)n1,5.49%
5,CCNC(=O)C1CCN(S(=O)(=O)c2c(C)cc(C)cc2C)CC1,-6.38%
6,CN1CCN(c2c3c(nc4ccccc24)C2(C)CCC3C2(C)C)CC1 (centres unmarked),-3.15%
7,COCCNC(=O)C(Cc1ccccc1)N1Cc2ccccc2C1=O (centres unmarked),-1.31%
8,COc1ccc(-c2nnc3oc(O)cc(C)c2-3)cc1,-1.33%
9,Cc1nc(-c2ccccc2)sc1C(=O)NCc1ccccc1,3.95%
10,Cc1cccc(NC(=O)CN2C(=O)N/C(=C/c3ccc(-c4cccc(C(=O)O)c4C)o3)C2=O)c1,4.08%
11,Cc1nnc2c(NCc3ccccc3)nc3ccc(C(=O)c4ccccc4)cc3n12,0.454%
12,CC1CCN(S(=O)(=O)c2ccc3nc(-c4ccccn4)cc(C(=O)NCC4CCCO4)c3c2)CC1 (centres unmarked),-2.72%
13,O=C(COc1ccc(S(=O)(=O)NC2CCCCC2)cc1)NCCC1=CCCCC1,3.74%
14,O=C(NC1(C(F)(F)F)NC(=O)N(C2CCCCC2)C1=O)c1ccc(Cl)cc1Cl (centres unmarked),1.03%
15,N#CC1=C(N)N(c2ccc(Cl)cc2)C2=C(C(=O)CCC2)C12C(=O)Nc1ccccc12 (centres unmarked),0.687%
16,Cc1nn(C)c(C(=O)NCc2ccc(Cl)cc2)c1Cl,0.687%
17,CCCCC1(CC)Cc2ccccc2-c2nc(-c3ccccc3)nc(S)c21 (centres unmarked),0.986%
18,COc1ccccc1CCNCc1c(C(=O)O)c(C)n(Cc2ccccc2F)c1C,4.79%
19,CCc1cccc(CC)c1NC(=O)CCN1C(=O)c2ccccc2C1=O,1.83%
20,Cc1cc(NC(=O)c2ccc(-c3ccccc3F)o2)no1,-2.05%
21,COc1cc2c(cc1OC)C(COc1ccc(F)cc1)N(C(=O)c1ccco1)CC2 (centres unmarked),3.04%
22,CCCCCCc1nnc(NC(=O)CCCC)s1,0.927%
23,Cc1c(CNC(C)c2ccccc2)c(C(=O)O)c(C)n1Cc1ccccc1 (centres unmarked),8.86%
24,Cc1ccc(S(=O)(=O)O)c(C)c1N1CCCC1=O,-5.5%
25,COc1ccc(-n2c(N)c(-c3nc4ccccc4s3)c3nc(C#N)c(C#N)nc32)cc1,-0.0626%
26,CC1=C(C(=O)Nc2cccnc2)C(c2ccc(Br)cc2)n2nc(-c3ccccc3)nc2N1 (centres unmarked),-2.32%

row,Compound,% Inhibition @ 10 uM
1,CC(CNC(=O)c1cccnc1)NC(=O)c1cccnc1 (centres unmarked),-1.82%
2,O=C(COc1ccccc1Br)N1CCCCC1,-4.7%
3,Cn1cccc1C1Nc2ccccc2N=C2CC(C)(C)CC(O)=C21 (centres unmarked),-0.759%
4,Cc1ccc(C(=O)N/C(=C/c2ccccc2)C(=O)Nc2nccs2)cc1,4.65%
5,CC(C)(C)c1ccc(CN(Cc2ccco2)C(=O)c2ccccc2)cc1,2.29%
6,Nc1ccc(-c2nc3cc(Cl)ccc3o2)cc1,-1.44%
7,COc1ccccc1NC(=O)Nc1ccccc1C,1.7%
8,COc1ccc(Br)cc1C1CC(=O)N2CN(Cc3ccco3)CSC2=C1C#N (centres unmarked),60.5%
9,CC(=O)N(CCc1ccccc1)C1CC(=O)N(c2ccc(Br)cc2)C1=O (centres unmarked),-0.28%
10,COc1ccc(OC)c(NC(=O)c2ccc(C(=O)Nc3cc(OC)ccc3OC)cc2)c1,4.11%
11,Cc1ccsc1CCNS(=O)(=O)c1ccc2nc(O)ccc2c1,1.64%
12,CNC(=O)/C(=C\c1ccc2c(c1)OCO2)NC(=O)c1ccccc1,-2.68%
13,COc1cc2c(cc1OC)CC1(CCCCC1)N=C2,1.13% and -3.63%
14,O=C(COc1cccc(Cl)c1)Nc1nc(-c2ccc(S(=O)(=O)N3CCOCC3)cc2)cs1,-5.5%
15,COCCCNC(=O)CS(=O)(=O)Cc1nc(-c2cccc(Cl)c2)oc1C,0.44%
16,COc1ccc(C(=O)c2c[nH]nc2-c2cc(C)ccc2O)cc1,-2.53%
17,COc1ccc(OC)c(NC(=O)COc2ccccc2C)c1,-4.49%
18,CCOc1ccc(S(=O)(=O)Nc2cc(SCC(=O)O)c(O)c3ccccc23)cc1,2.69%
19,O=C(CSc1nnc(CNC(=O)c2ccco2)n1-c1cccc(Cl)c1)Nc1nccs1,-11%
20,Cc1nnc(N2CCC(C(=O)N3CCOCC3)CC2)c2nn(-c3ccccc3)c(C)c12,-0.696%
21,CC1CCN(C(=O)CN(c2ccc3c(c2)OCCO3)S(=O)(=O)c2ccccc2)CC1,-4.49%
22,CC1CCN(CCCCOc2cccc(C(C)C)c2)CC1,3.87%
23,COC(=O)c1cc(S(=O)(=O)N2CCC(c3cc(OC)ccc3OC)C2)c[nH]1 (centres unmarked),-1.01%
24,Cc1ccc(N/C=C(\C#N)C(=O)NC(=O)c2ccccc2)cc1,-4.75%
25,CCN1CCC2(CC1)OC(=O)C(C)=C2C(=O)NCCc1cccs1,0.56%
26,Cn1nccc1C(=O)C#Cc1ccccc1,2.55%

row,Compound,% Inhibition @ 10 uM
1,O=C(c1ccc(F)cc1)N1CCN(Cc2ccccc2)CC1,-0.582%
2,COc1cc(C(C)=O)ccc1OCC(O)CN1CCN(c2ccccc2)CC1 (centres unmarked),0.161%
3,COc1ccc(CCNC(=O)C(Cc2ccccc2)NS(=O)(=O)c2cccs2)cc1OC (centres unmarked),-0.228%
4,CN(C)C(=O)c1ccc(N/C=C2/C(=O)NC(=O)N(c3ccccc3)C2=O)cc1,-2.89%
5,COC(=O)C1=C(C)NC(=O)CC1c1cc(Br)ccc1F (centres unmarked),3.25%
6,CC1CN(Cc2ccc(F)c(F)c2)CC(C)O1 (centres unmarked),-3.8%
7,N#CCNC(=O)[C@H](Cc1ccc(F)cc1)NC(=O)c1ccccc1,-1.83%
8,COc1ccc(-c2cc3nc(C)c(CCC(=O)N4CCC5(CC4)OCCO5)c(C)n3n2)c(OC)c1,2.93%
9,O=C(O)CCCN1C(=O)C2C3CC(C2C1=O)C1C(c2cccnc2)c2sc(O)nc2SC31 (centres unmarked),4.8%
10,COc1ccccc1/C=c1\sc2nc(-c3ccccc3C)nn2c1=O,2.24%
11,O=C(Nc1ccc2c(c1)OCCO2)c1sc2cc(F)ccc2c1Cl,-5.79%
12,CC(C)CCn1c(=O)c2ccccc2n2c(CCC(=O)NCc3ccco3)nnc12,8.05%
13,Cc1cc(Cl)ccc1OCC(O)CN1CCN(c2ccccc2F)CC1 (centres unmarked),3.43%
14,CCOc1ccccc1-n1nnc(C(=O)OC)c1C(=O)OC,-1.58%
15,CCCN(CC1CC1)C1CCN(C(=O)OCC)CC1,-0.0908%
16,CCOc1cc(C2C(C(=O)c3ccc(C)cc3)=C(O)C(=O)N2c2nncs2)ccc1O (centres unmarked),-0.178%
17,COc1ccccc1N1CCN(CC(O)COc2ccccc2F)CC1 (centres unmarked),-0.478%
18,CCN1CCCC1CNC(=O)c1cnc(SC)nc1-c1ccccc1 (centres unmarked),1.77%
19,Cc1ccc(-n2ncc(C(=O)N3CCCCC3CCO)c2NC(=O)c2ccco2)cc1C (centres unmarked),-5.13%
20,CCCCOC(=O)/C(C#N)=C/c1ccc(-c2ccccc2)o1,5.59%
21,CCOc1ccc(-c2cc(C(=O)NCC3CCCO3)c3cc(C)ccc3n2)cc1 (centres unmarked),2.08%
22,Cc1ccc2oc(/C=C/c3nc4cc(C)ccc4o3)nc2c1,-0.546%
23,CCCCOc1ccc(Nc2nc(-c3ccccc3)cc(-c3ccccc3)n2)cc1,6.6%

# Reference: PMC6919601, “Identification of Plasmodium dipeptidyl aminopeptidase allosteric inhibitors by high throughput screening” (PLoS ONE, 2019)
